Columns and labels:
[1] = tested on: L-A virus derived −1PRF signal; experiment: Dual luciferase frameshifting assay in yeast, pYDL-LA reporter; conditions: gentamicin 500 μg/ml vs absence
Description: (§1) Frameshifting in yeast was monitored by using the dual luciferase reporter plasmid pYDL-LA (which contains an L-A virus derived −1PRF signal) and pYDL-Ty1 (which contains a Ty1 derived +1PRF signal)^20 in the presence or absence of gentamicin (500 μg/ml). […] Thus, similar to the loss of the RAC complex or Ssb function, the presence of gentamicin specifically affected −1 PRF in yeast. To test the generality of this hypothesis, the frameshifting studies were extended to assays in human-derived cells using reporter plasmids harboring the HIV-1 −1 PRF signal^21. […]
(§2) FIG. 2 are bar graphs showing the effects of gentamicin on PRF. (A) −1 PRF promoted by the endogenous yeast L-A viral signal and +1 PRF promoted by the Ty1 retrotransposable element signal were monitored in yeast cells in the presence (500 μg/ml) or absence of gentamicin. (B) −1 PRF promoted by the HIV-1 frameshift signal was monitored in both HeLa and Jurkat cells cultured in the indicated concentrations of gentamicin.
(§3) Frameshifting Assays. […] Cell extracts were prepared and frameshifting was measured as previously described^20,26. […] The Renilla and firefly luciferase activities produced by the 0-frame control and −1 PRF test construct were measured for each of the gentamicin concentrations. A minimum of three independent luciferase readings were taken from each sample. […]

Ty1 derived +1PRF signal = conditions: yeast, gentamicin 500 μg/ml vs absence
Description: as §1, §2, §3

yeast cells = conditions: gentamicin 500 μg/ml
Description: Frameshifting in yeast was monitored by using the dual luciferase reporter plasmid pYDL-LA (which contains an L-A virus derived −1PRF signal) and pYDL-Ty1 (which contains a Ty1 derived +1PRF signal)^20 in the presence or absence of gentamicin (500 μg/ml). […] Thus, similar to the loss of the RAC complex or Ssb function, the presence of gentamicin specifically affected −1 PRF in yeast. To test the generality of this hypothesis, the frameshifting studies were extended to assays in human-derived cells using reporter plasmids harboring the HIV-1 −1 PRF signal^21. These studies employed HeLa CD4^+ I and Jurkat cells transiently transfected with pJD175c (harboring the HIV −1 PRF signal) or pJD175d (0-frame control)^21. Gentamicin stimulated HIV-1 directed −1 PRF by up to 40% in both cell lines (FIG. 2B).
Frameshifting Assays. Yeast BY4741 (MATa his3Δ1 leu2Δ0 met15Δ0 ura3Δ0) transformed with pYDL-LA, pYDL-Ty1, or pYDL-control^20 were grown overnight in the presence or absence of gentamicin (500 μg/ml). Cell extracts were prepared and frameshifting was measured as previously described^20,26. […] The Renilla and firefly luciferase activities produced by the 0-frame control and −1 PRF test construct were measured for each of the gentamicin concentrations. A minimum of three independent luciferase readings were taken from each sample. […]

HIV-1 strain LAI = experiment: Limit-dilution titer of infectious virus with p24 antigen capture assay; type: cell-based; conditions: Jurkat E6-1, 50 μg/ml, days 4-10 post infection
Description: (§4) (A) Jurkat E6-1 cells were grown in RPMI-1640 media supplemented with 10% FBS. Cells were infected with HIV-1 (LAI) at an MOI of 0.01 in media containing gentamicin at 0, 50, 250, or 500 μg/ml. Infected or mock infected cells were maintained in the above media containing the corresponding concentration of gentamicin. Clarified viral supernatant was assayed for RT activity on days 2, 4, 6, 8, and 10 post infection. […] Results are from an average of 3 experiments with error bars corresponding to standard deviation values. (B) Clarified viral supernatants from days 4, 6, 8, and 10 above were used to perform limit-dilution assays in order to determine the level of infectious virus produced in untreated and gentamicin treated cells. A p24 antigen capture assay was used to detect virus. Results are reported as TCID50/ml vs. day post infection. The antigen capture assay was repeated with similar results while the RT activity assay was repeated twice with similar results.
Cells and viruses. Jurkat E6-1 cells (obtained through the ATCC) were cultured in RPMI-1640 supplemented with 10% fetal bovine serum at 37° C. and 5% CO2 according to the ATCC data sheet. HIV-1 strain LAI was obtained through the NIH AIDS Research and Reference Reagent Program.
HIV infection of Jurkat cells. All experiments were performed with Jurkat cells in 24-well plates and in duplicate. […]

Jurkat E6-1 cells = conditions: Jurkat E6-1, 50 μg/ml
Description: as §4
HIV infection of Jurkat cells. All experiments were performed with Jurkat cells in 24-well plates and in duplicate. 2×10^5 cells were infected at an MOI of 0.01 or mock infected by incubating cells and virus in 150 μl of complete medium containing 0, 50, 250, or 500 μg/ml of gentamicin (Sigma) for 1 h at 37° C. in 5% CO2. […]

## gentamicin
[1]
  increase in L-A virus promoted −1 PRF: > 3 fold
Ty1 derived +1PRF signal
  effect on Ty1 directed +1 PRF: virtually no effect
Yeast cells
  effect on cell growth: did not noticeably affect cell growth
HIV-1 strain LAI
  infectious virus in cell-free supernatant: a small amount of virus was detectable at day 10 only
Jurkat E6-1 cells
  effects on cell growth or morphology: no noticeable effects on cell growth or morphology

— patent publication US20110183892A1 (priority 2007, published 2011)
